Laboratory results from the supplement of paper PMC12217912.
The list shows a part of the results. The full chains were built here from the parent and the listed change. Inactive controls read about 0.05.

B1: TEV protease; numbered along this chain (parent)
chain: MGESLFKGPRDYNPISSSICHLTNESDGHTTSLYGIGFGPFIITNKHLFRRNNGTLVVQSLHGVFKVKDTTTLQQHLVDGRDMIIIRMPKDFPPFPQKLKFREPQREERICLVTTNFQTKSMSSMVSDTSCTFPSGDGIFWKHWIQTKDGQCGSPLVSTRDGFIVGIHSASNFTNTNNYFTSVPKNFMELLTNQEAQQWVSGWRLNADSVLWGGHKVFMVKPEEPFQPVKEATQL

Variants of: B1
Test: raw area under fraction-flipped curve 0-4 h after induction (AUC4h, not background-subtracted), DNA-recorder readout of cleavage of the substrate (dimensionless); higher = more cleavage of the substrate by the protease variant
Conditions: temperature: 34 °C; time window: 0-4 h after rhamnose induction
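Note: Bxb1 expression induced with 0.2% (w/v) L-rhamnose at OD600 near 0.5, cultures sampled hourly, flipped fraction per protease–substrate barcode pair counted by paired-end Illumina sequencing.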

Variant	area with substrate ECLYFQS	area with substrate EILYFQS	area with substrate ELLYFQS	area with substrate EMLYFQS	area with substrate EQLYFQS	area with substrate ERLYFQS	area with substrate ESLYFQS	area with substrate ETLYFQS	area with substrate EVLYFQS	area with substrate EWLYFQS	area with substrate EYLYFQS	area with substrate EDLYFQS	area with substrate EELYFQS	area with substrate EHLYFQS	area with substrate EKLYFQS	area with substrate EPLYFQS	area with substrate EGLYFQS	area with substrate EFLYFQS
L190R	0.109	0.0692	0.102	0.136	0.118	0.0854	0.0845	0.0874	0.0831	0.0869	0.103							
E195M	0.13	0.0918			0.0778	0.0764	0.0852					0.101	0.0946	0.069	0.0824			
W212Q	0.0928	0.0845	0.0958	0.1		0.0961		0.103	0.0768	0.113	0.0823	0.119		0.0961	0.0921	0.13		
N193G	0.0935					0.0986					0.114			0.0905	0.0722			
N193T	0.104		0.0745	0.11		0.0964	0.0943	0.101	0.0849			0.105		0.127			0.104	
T181P	0.0412	0.0503		0.0552			0.0554		0.0535	0.0394				0.0669				0.0597
N186P	0.0595						0.0706		0.054	0.083		0.112			0.0844		0.0653	0.0837
V210Q	0.0914	0.0815	0.0836	0.101		0.0732	0.0843		0.0693	0.0708	0.0945	0.114	0.0992		0.074		0.0524	
V210S	0.0812	0.0608		0.0718	0.0763	0.08	0.0878	0.0853	0.0797			0.131		0.102	0.0699	0.116	0.0571	
V210C	0.0994	0.0881	0.0836	0.0897		0.0842	0.0927		0.0822		0.101		0.122	0.114	0.106	0.123	0.077	0.0902
V210L	0.103	0.0759	0.0879	0.0987	0.108	0.0861	0.0929		0.091	0.0076	0.0846	0.106	0.124	0.0973	0.0809	0.108	0.0625	0.0871
N175E	0.106		0.04		0.0778	0.0725			0.0747						0.0738	0.0923		
N175R	0.109					0.0722	0.13				0.106			0.142	0.0931			0.0946
F180G	0.0903	0.0602	0.0579	0.0717	0.0585	0.0617	0.0658		0.0702	0.0823			0.0953	0.0713	0.0472	0.0816		
F180E	0.0471		0.0483		0.0561	0.0297	0.0534	0.0672		0.0618					0.0431	0.0516	0.0541	0.0613
F180W	0.0804	0.0723	0.0744		0.0886		0.0837		0.0918				0.0706	0.0713	0.0496	0.0929	0.0626	
